Where “and” joins values, the source holds several entries; their conditions need not be identical. Equal values may be shown once. In all, about 420,000 compounds went through this assay and about 64,000 (15%) were called active. This list was built around the results that the source calls inconclusive (neither active nor inactive); the mix of calls is not that of the screen. Calls follow the shape of the dose curve; as a rule, active = well fitted inhibition curve with a large enough effect; inconclusive = small, poorly fitted or top-dose-only effect; inactive = flat fitted curve, though single readings scatter. Potencies of inconclusive entries are doubtful fits and often do not repeat.
Assay: qHTS for Inhibitors of human tyrosyl-DNA phosphodiesterase 1 (TDP1): qHTS in cells in absence of CPT; also: nearly all actives have a fitted effect of over 55% in size
Conditions: DT40 Tdp1-/- hTDP1 cells, no CPT, ATP luminescence, 48 h; activity change, negative = growth inhibition: at 46.2 µM (top of the series) unless noted
Outline: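 Camptothecin absent (DMSO only). Human TDP1-complemented DT40 knockout cells, 400 cells/well, 37 °C for minimum 48 hr; ATP measured via CellTiter-Glo, 30 min dark incubation, luminescence.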
In the case of `COc1cccc(-c2nn3c(-c4ccco4)nnc3s2)c1`, the Potency is reported as inconclusive: 23.1 µM [inhibitor, single point].
With `Cc1noc(C)c1-c1nc(N2CCNCC2)c2ccccc2n1` the Potency was inconclusive: 29.1 µM [inhibitor, single point].
In the case of `Cn1cccc1C(=O)N1CCC2(CCCN(Cc3nccs3)C2)CC1`, the Potency is reported as inconclusive: 29.1 µM [inhibitor, single point].
In the case of `CC1(C)C/C(=N/Nc2ccc([N+](=O)[O-])cc2[N+](=O)[O-])C(C)(C)O1`, the Potency is reported as inconclusive: 7.31 µM [inhibitor, partial curve, poor fit].
With `Cc1cnc(CNc2cc(-c3ccccc3CN(C)C)ncn2)cn1` the “activity change, negative = growth inhibition” value was inactive: -15.3%.
With `CCN(C(=O)c1cccc(S(=O)(=O)N2CCc3ccccc32)c1)C1CCS(=O)(=O)C1` (configuration not stated) the Potency was inconclusive: 32.6 µM [inhibitor, single point].
In the case of `O=C(OCC(=O)N(CCc1ccccc1)Cc1ccccc1)c1ccc(F)c(S(=O)(=O)N2CCOCC2)c1`, the Potency is reported as active: 2.91 µM.
In the case of `COc1ccc(NC(=O)C2(C)Cc3c(-c4cccc(C(N)=O)c4)ccnc3O2)cc1` (configuration not stated), the Potency is reported as active: 3.66 µM.
In the case of `Cc1cc2cc(C#N)c(N3CCN(S(C)(=O)=O)CC3)nc2cc1C`, the Potency is reported as inconclusive: 18.4 µM [inhibitor, single point].
With `O=C(c1ccccn1)N1CCCC(N2CCN(c3ccccc3)CC2)C1` (configuration not stated) the “activity change, negative = growth inhibition” value was inactive: 12.7%.
In the case of `COc1ccc(CNC(=O)CSc2c3c(nc4ccc(Cl)cc24)CCCC3)cc1`, the Potency is reported as inconclusive: 13 µM [inhibitor, partial curve].
For `CCOC(=O)c1nnn(-c2nonc2N)c1-c1ccccc1Cl`, the Potency was inconclusive: 25.9 µM [inhibitor, single point].
For `Cc1ccc2c(c1)N(CC(=O)N(Cc1ccccn1)Cc1ccco1)C(=O)C(C(C)C)O2` (configuration not stated), the Potency was inconclusive: 20.6 µM [inhibitor, single point].
For `O=C(Nc1ccc(Cl)cc1)c1sccc1-n1cccc1`, the “activity change, negative = growth inhibition” value was inactive: -0.115%.
In the case of `O=C(CCN1C(=O)/C(=C/c2ccc3c(c2)OCO3)SC1=S)NNC(=O)c1cccnc1`, the Potency is reported as inconclusive: 8.2 µM [inhibitor, partial curve].
For `O=C(c1ccc(Cl)c(S(=O)(=O)N2CCCCC2)c1)N1CCCCCC1`, the Potency was inconclusive: 20.6 µM [inhibitor, single point].
For `CCc1nc2c(OCCn3cccc3)cccn2c1N(C)C(=O)c1cccs1`, the “activity change, negative = growth inhibition” value was inactive: -20.9%.
With `CCCn1c(SCC(=O)Nc2cc(Cl)ccc2Cl)n[nH]c1=O` the Potency was inconclusive: 9.2 µM [inhibitor, partial curve].
For `O=C1c2cccc3cccc(c23)C(=O)N1Cc1ccccn1`, the “activity change, negative = growth inhibition” value was inactive: -19.6%.
For `O=C(NCc1ccco1)c1sc2cccc(F)c2c1Cl`, the Potency was inconclusive: 29.1 µM [inhibitor, single point].
In the case of `O=C(Nc1ccc2c(c1)OCCO2)c1c(F)c(F)c(F)c(F)c1F`, the Potency is reported as inconclusive: 29.1 µM [inhibitor, single point].
With `Cc1ccc(Nc2nc(NCc3cccs3)nc3ccsc23)c(C)c1` the Potency was active: 9.2 µM.
With `CC(Sc1nnc(CNc2cccc3ccccc23)n1-c1ccccc1)C(=O)N/N=C/c1ccco1` (configuration not stated) the “activity change, negative = growth inhibition” value was inactive: -3.69%.
With `Cn1c(SCC(=O)Nc2ccccc2F)nnc1C1CCCCC1` the “activity change, negative = growth inhibition” value was inactive: 0.439%.
In the case of `NC(Cc1ccc2nonc2c1)C(=O)O` (configuration not stated), the “activity change, negative = growth inhibition” value is reported as inactive: -0.317%.
With `COc1ccc(CCC(=O)N2c3ccccc3CC2C)cc1` (configuration not stated) the Potency was inconclusive: 15.8 µM [inhibitor, single point].
With `COc1ccc(COC(=O)C2=C(C)NC(=O)NC2c2ccc(OC)c(OC)c2)cc1` (configuration not stated) the Potency was inconclusive: 29.1 µM [inhibitor, single point].
For `O=C(Cn1cnc2onc(-c3ccc(Cl)cc3)c2c1=O)Nc1ccc(F)cc1`, the Potency was inconclusive: 25.9 µM [inhibitor, single point].
With `CCOC(=O)c1ccc(N2C(=O)c3n[nH]c(-c4ccco4)c3C2c2cccc(O)c2)cc1` (configuration not stated) the Potency was active: 20.6 µM.
With `CCOc1ccc(NC(=O)N2CCN3CCCCC3C2)cc1` (configuration not stated) the “activity change, negative = growth inhibition” value was inactive: 2.52%.
With `CCCCCCn1c(SCC(=O)c2ccccc2)nc2c1c(=O)[nH]c(=O)n2C` the Potency was inconclusive: 29.1 µM [inhibitor, single point].
In the case of `Cc1ccc(NC(=O)c2cc(N3C(=O)CCC3=O)ccc2N2CCCCC2)cc1`, the “activity change, negative = growth inhibition” value is reported as inactive: -33.3%.
With `O=[N+]([O-])c1nn(-c2cccc(Cl)c2)n(O)c1=NCc1cccnc1` the Potency was active: 13 µM.
With `CN(C)S(=O)(=O)c1ccc(F)c(C(=O)Nc2ccccc2C(=O)NC2CC2)c1` the Potency was inconclusive: 29.1 µM [inhibitor, single point].
In the case of `CCn1c(=O)c(C(=O)CN(C)Cc2cccc(OC)c2OC)c(N)n(Cc2ccccc2)c1=O`, the Potency is reported as active: 14.6 µM.
In the case of `COCCNC(=O)CN1C(=O)c2cccnc2Oc2ccc(Cl)cc21`, the “activity change, negative = growth inhibition” value is reported as inactive: -11%.
For `CC(C)CC1(C(=O)NCCc2c[nH]c3ccccc23)C=CCN1C(=O)c1ccccc1` (configuration not stated), the Potency was inconclusive: 29.1 µM [inhibitor, single point].
With `O=C(Cn1nc2ccccc2n1)N/N=C/c1cc([N+](=O)[O-])ccc1O` the Potency was inconclusive: 18.4 µM [inhibitor, single point].
With `COC(=O)c1c(-c2ccc3ccccc3c2)csc1NC(=O)Cc1ccc(OC)c(OC)c1` the Potency was active: 13 µM.
In the case of `Cc1ccc(S(=O)(=O)N(CCc2ccccc2)CC(=O)Nc2ccc(Br)cc2)cc1`, the Potency is reported as active: 16.4 µM.
For `COCCCNC(=O)C[C@@H]1C[C@@]2(C(=O)OC)CCCCC=C2N(Cc2cccc3ccccc23)C1=O`, the Potency was inconclusive: 29.1 µM [inhibitor, single point].
For `CCc1cccc(CC)c1NC(=O)CCS(=O)(=O)c1ccc2c(c1)CCN2C(C)=O`, the “activity change, negative = growth inhibition” value was inactive: -18.1%.
With `CN(C)C(=O)c1nc2ccc(Cl)cn2c1CNCc1cccc(OC(F)(F)F)c1` the Potency was inconclusive: 29.1 µM [inhibitor, single point].
In the case of `COC(=O)c1[nH]c2ccccc2c1NC(=O)CN1CCN(c2cccc(OC)c2)C(C)C1` (configuration not stated), the Potency is reported as active: 18.4 µM.
In the case of `CC(CCC(=O)O)C1CCC2C3C(=O)CC4CC(=O)CC[C@@]4(C)C3CC(=O)[C@]12C` (some centres not stated), the “activity change, negative = growth inhibition” value is reported as inactive: -4.44%.
For `c1cncc(-c2nc(N3CCOCC3)c3ccccc3n2)c1`, the Potency was active: 35.5 µM.
In the case of `S=C(Nc1ccc(Cl)cc1Cl)N1CCCC1`, the “activity change, negative = growth inhibition” value is reported as inactive: 13.4%.
In the case of `CC1=C(C(=O)NC2CCCc3c2cnn3-c2ccc(F)cc2F)OCCO1` (configuration not stated), the Potency is reported as active: 4.11 µM.
For `CCOC(=O)N1CCC(O)(c2cc(C)c(C)cc2C)CC1`, the Potency was inconclusive: 29.1 µM [inhibitor, single point].
In the case of `Cc1cccc(NC(=O)c2oc3ccccc3c2NC(=O)Cc2coc3ccc(C(C)C)cc23)c1`, the Potency is reported as inconclusive: 2.31 µM [inhibitor, partial curve, poor fit].
For `CN(Cc1ccco1)c1cc(-c2ccoc2)ncn1`, the “activity change, negative = growth inhibition” value was inactive: -2.13%.
In the case of `COc1ccc(NC(=O)c2ccc3[nH]c(C)c(C)c3c2)c(OC)c1`, the Potency is reported as active: 18.4 µM.
With `Cc1ccc([C@H]2C[C@H](n3cc(-c4ccc(F)cc4)nn3)[C@@H](O)CN2CC2CCCCC2)cc1` the Potency was inconclusive: 18.4 µM [inhibitor, single point].
With `CCCc1nnc(SCC(=O)NC2CCCC2)n1CCOC` the “activity change, negative = growth inhibition” value was inactive: 0.664%.
In the case of `N#Cc1ncc(-c2ccc3c(c2)OCCOCCOCCOCCO3)nc1C#N`, the Potency is reported as active: 4.61 µM.
With `O=C(NCCC1CCCCN1S(=O)(=O)c1cccs1)C(=O)Nc1ccccc1F` (configuration not stated) the Potency was active: 23.1 µM.
In the case of `COc1ccc2cc(C3CC(c4ccco4)=NN3S(=O)(=O)c3ccccc3)c(Cl)nc2c1` (configuration not stated), the Potency is reported as active: 14.6 µM.
With `CCOC(=O)C[C@H]1c2ccccc2S(=O)(=O)N1c1cccc(OC)c1` the Potency was inconclusive: 20 µM [inhibitor, single point] and inconclusive: 14.6 µM [inhibitor, single point].
With `Cn1c(=O)c2c(nc(OCC3COC(C)(C)O3)n2Cc2ccccc2F)n(C)c1=O` (configuration not stated) the Potency was inconclusive: 29.1 µM [inhibitor, single point].
In the case of `COc1ccc(-c2nc(CNS(=O)(=O)c3cccc(F)c3)cs2)cc1`, the Potency is reported as active: 14.6 µM.
With `O=C(Nc1ccc(NC(=O)c2cc([N+](=O)[O-])ccc2N2CCOCC2)cc1)c1cccs1` the Potency was inconclusive: 0.58 µM [inhibitor, full curve].
With `Cc1cnc(NC(=O)Nc2ccccc2)c(C)n1` the “activity change, negative = growth inhibition” value was inactive: 12%.
With `Cc1ccc(S(=O)(=O)N2CCCC(C(=O)NCc3ccc4c(c3)OCO4)C2)cc1` (configuration not stated) the Potency was inconclusive: 6.51 µM [inhibitor, full curve, poor fit].
In the case of `O=C(CCCN1C(=O)/C(=C/c2ccccc2)SC1=S)N1CCOCC1`, the Potency is reported as inconclusive: 23.1 µM [inhibitor, single point].
For `CCCCCN1C=CC(=C2C(=O)c3ccccc3C2=O)C=C1`, the Potency was inconclusive: 29.1 µM [inhibitor, single point].
In the case of `COC(=O)C1=C(C)N(Cc2ccccc2)C(=NCc2cccc(Cl)c2)N[C@H]1c1cccc(F)c1`, the Potency is reported as active: 3.66 µM.
For `O=C(CCCn1c(=O)c2cccn2c2ccccc21)NCc1ccccc1Br`, the Potency was active: 16.4 µM.
With `O=C(Nc1ccc(F)c(Cl)c1)c1cc(C2CCCN(C(=O)CCc3ccccc3)C2)on1` (configuration not stated) the Potency was inconclusive: 29.1 µM [inhibitor, single point].
In the case of `CC(=O)c1ccc(N2CCN(C(=O)c3cc4c(C)nc5ccccc5c4o3)CC2)cc1`, the Potency is reported as inconclusive: 6.51 µM [inhibitor, single point].
In the case of `CC(C(=O)C12CC3CC(CC(C3)C1)C2)N1CCOCC1` (configuration not stated), the Potency is reported as inconclusive: 25.9 µM [inhibitor, single point].
For `CC1=C(C(=O)N2CCOCC2)CC(CC(=O)NCCc2ccccn2)C(=O)N1Cc1ccc(C(C)(C)C)cc1` (configuration not stated), the “activity change, negative = growth inhibition” value was inactive: -18%.
In the case of `CC(C)CC(N)c1csc(Nc2ccc(C(=O)N(C)Cc3ccccc3)cn2)n1` (configuration not stated), the Potency is reported as active: 5.8 µM.
% is scaled to controls: 0 for no effect and ±100 for the full control effect; potency is read from the fitted curve at half-maximal effect; tags tell the direction and shape of the fitted curve.
